This passage reports AUC and IC50 results from the supplement of paper PMC4967469.

By pIC50 is commonly meant the negative decadic logarithm of the IC50, by convention in mol/L.

Common to all, as to test: Viability of human cancer cell lines after 72 h of drug (GDSC screen)
Compound in one assay: Cc1cc([N+](=O)[O-])ccc1NS(=O)(=O)c1cc(Cl)ccc1Cl [FH535]
The note with it: top dose 32 µM; top dose inferred. As to the method: (§1)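 Human cancer cell lines in 384-well plates, medium with 10% serum, drug for 72 h over a 256-fold dose range (nine 2-fold or five 4-fold steps up to the top dose). Adherent lines were fixed and stained with the nucleic acid dye Syto60, suspension lines read with resazurin; signal relative to control wells, capped at 0 and 100%. One two-parameter sigmoid per drug and line, fitted in a mixed model over all curves with the slope shared within a line.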

Compound in another assay: COc1cc(N2CCN(C)CC2)ccc1Nc1nc(N)c(C(=O)c2c(Cl)cccc2Cl)s1 [XMD14-99]
The note with it: top dose 10.24 µM; top dose inferred. How it is done:
as §1

Compound in a further assay: O=C(NC1CCNCC1)c1n[nH]cc1NC(=O)c1c(Cl)cccc1Cl [AT-7519]
The note with it: top dose 10.24 µM; top dose inferred. How it is done: as §1

pIC50: −log10 of the molar value. A lower IC50 marks a more sensitive line; a fit beyond the top or the lowest dose is shown as a bound at that dose. AUC is the area under the same curve over the 256-fold range up to the top dose, as a fraction: 1 means no effect, lower means more sensitive. An inferred top dose was calculated from the reported fits.

Regarding COLO-205 (large intestine, suspension), the figures for the AUC with FH535, with XMD14-99 and in the assay with AT-7519 were 0.545, 0.963 and 0.599, respectively. For the same cell line, the results for the pIC50 with FH535, with XMD14-99 and in the assay with AT-7519 were 5.58, less than 4.99 and 5.92, respectively.

In the case of EFM-192A (breast, adherent), the AUC with FH535 was determined as 0.264; in the assay with XMD14-99 it was 0.981; in the assay with AT-7519, 0.865. For the same cell line, the pIC50 in the assay with FH535 was 6.41; in the assay with XMD14-99, less than 4.99; in the assay with AT-7519 it was less than 4.99.

For IPC-298 (melanoma, adherent), the values for the AUC with FH535, in the assay with XMD14-99 and with AT-7519 were 0.574, 0.974 and 0.839, respectively. Further, the pIC50 is 5.50 with FH535, less than 4.99 with XMD14-99 and 5.17 with AT-7519.

As for CAL-85-1 (breast, adherent), the figures for the AUC with FH535, with XMD14-99 and with AT-7519 were 0.607, 0.962 and 0.719, respectively. For the same cell line, the pIC50 is 5.37 with FH535, less than 4.99 with XMD14-99 and 5.49 with AT-7519.

Consider A431 (skin, adherent), for which the AUC is 0.564 with FH535, 0.987 with XMD14-99 and 0.36 with AT-7519. Moreover, the figures for the pIC50 in the assay with FH535, with XMD14-99 and in the assay with AT-7519 were 5.53, less than 4.99 and 6.57, respectively.

As to VMRC-RCW (kidney, adherent), the results for the AUC in the assay with FH535, with XMD14-99 and with AT-7519 were 0.476, 0.983 and 0.942, respectively. Besides, the pIC50 in the assay with FH535 is 5.76; in the assay with XMD14-99, less than 4.99; in the assay with AT-7519, less than 4.99.

On to MKN1 (stomach, adherent), for which the AUC was found to be 0.61 with FH535, 0.978 with XMD14-99 and 0.677 with AT-7519. Further, the pIC50 was 5.39 in the assay with FH535, less than 4.99 in the assay with XMD14-99 and 5.69 with AT-7519.

For the cell line GMS-10 (glioma, adherent), the AUC in the assay with FH535 was found to be 0.805; with XMD14-99 it was 0.986; with AT-7519, 0.772. Besides, the pIC50 with FH535 is 4.80; in the assay with XMD14-99, less than 4.99; with AT-7519, 5.41.

For ECC10 (stomach, suspension), the AUC with FH535 is 0.665; with XMD14-99, 0.973; in the assay with AT-7519 it was 0.663. The pIC50 in the assay with FH535 is 5.23; with XMD14-99, less than 4.99; with AT-7519 it was 5.73.

On to C-33-A (cervix, adherent), for which the figures for the AUC in the assay with FH535, with XMD14-99 and with AT-7519 were 0.526, 0.977 and 0.811, respectively. The pIC50 in the assay with FH535 is 5.63; with XMD14-99 it was less than 4.99; with AT-7519 it was 5.26.

With ESS-1 (endometrium, adherent), the AUC was 0.668 with FH535, 0.985 with XMD14-99 and 0.861 with AT-7519. Also, the pIC50 is 5.25 with FH535, less than 4.99 with XMD14-99 and 5.14 in the assay with AT-7519.

For Caov-4 (ovary, adherent), the figures for the AUC in the assay with FH535, with XMD14-99 and in the assay with AT-7519 were 0.872, 0.954 and 0.647, respectively. The figures for the pIC50 in the assay with FH535, in the assay with XMD14-99 and with AT-7519 were less than 4.49, less than 4.99 and 5.70, respectively.

Take SKG-IIIa (cervix, adherent): the AUC worked out at 0.801 with FH535, 0.98 in the assay with XMD14-99 and 0.982 in the assay with AT-7519. In addition, the results for the pIC50 with FH535, with XMD14-99 and with AT-7519 were 4.65, less than 4.99 and less than 4.99, respectively.

In the case of KYSE-450 (oesophagus, adherent), the AUC with FH535 worked out at 0.7; with XMD14-99, 0.965; in the assay with AT-7519 it was 0.506. In addition, the values for the pIC50 in the assay with FH535, in the assay with XMD14-99 and with AT-7519 were 5.15, less than 4.99 and 6.18, respectively.

Regarding JHH-1 (liver, adherent), the AUC stood at 0.568 with FH535, 0.96 in the assay with XMD14-99 and 0.732 with AT-7519. Besides, the pIC50 was 5.50 in the assay with FH535, less than 4.99 with XMD14-99 and 5.50 in the assay with AT-7519.

For JHH-2 (liver, adherent), the figures for the AUC with FH535, with XMD14-99 and with AT-7519 were 0.912, 0.985 and 0.622, respectively. Further, the pIC50 is less than 4.49 in the assay with FH535, less than 4.99 with XMD14-99 and 5.84 with AT-7519.

As to PA-1 (ovary, adherent), the AUC with FH535 was 0.564; in the assay with XMD14-99 it was 0.926; with AT-7519, 0.26. Further, the values for the pIC50 in the assay with FH535, with XMD14-99 and in the assay with AT-7519 were 5.54, less than 4.99 and 6.80, respectively.

In the case of “NCI-H522 (lung adenocarcinoma, adherent)”, the AUC was found to be 0.51 with FH535, 0.984 in the assay with XMD14-99 and 0.519 in the assay with AT-7519. The figures for the pIC50 with FH535, in the assay with XMD14-99 and in the assay with AT-7519 were 5.67, less than 4.99 and 6.14, respectively.

Regarding KYSE-510 (oesophagus, adherent), the AUC with FH535 was 0.671; in the assay with XMD14-99, 0.991; with AT-7519 it was 0.917. For the same cell line, the pIC50 is 5.26 in the assay with FH535, less than 4.99 with XMD14-99 and less than 4.99 with AT-7519.
